# Where “and” joins values, the source holds several entries; their conditions need not be identical. Equal values may be shown once. About 530 (0.13%) of roughly 410,000 compounds were called active. This list was built around the results that the source calls inconclusive (neither active nor inactive); the mix of calls is not that of the screen. Calls follow the shape of the dose curve; as a rule, active = well fitted inhibition curve with a large enough effect; inconclusive = small, poorly fitted or top-dose-only effect, or another doubt; inactive = no such curve, though single readings can be large or run the other way. A potency beside an inconclusive call is a rough fit, not a confirmed value.
# Assay: qHTS of GLP-1 Receptor Inverse Agonists: Cytotox Screen
# Conditions: HEK293 cAMP-luciferase reporter cells, luminescence, 24 h; series mostly up to 38.3 µM
# Method in brief: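 Cells in DMEM/10% Nu serum/1% pen-strep, 1536-well format. Pre-incubated 12 h, dosed with 23 nL compound, incubated a further 24 h. Luciferase detection, 12 min at room temp, luminescence.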
# Potency is read from the fitted curve at half-maximal effect.
row,Structure (SMILES),Potency
1,CCC(=O)Nc1ccccc1C(=O)OCC(=O)c1ccc2ccccc2c1,inactive
2,C=CCn1c(COc2cccc3cccnc23)nnc1SCC(=O)O,inactive
3,CN(C)S(=O)(=O)c1cccc(N=C2NN=C(c3ccccc3)CS2)c1,"inconclusive: 28.2 µM [inhibitor, single point]"
4,N=c1sccn1CC(=O)NCCc1ccc(Cl)cc1Cl,"inconclusive: 22.4 µM [inhibitor, single point]"
5,Cc1ccc(-c2nc(C(=O)NCC3CCCO3)cc3c2[nH]c2ccccc23)cc1 (centres undefined),"inconclusive: 28.2 µM [inhibitor, single point]"
6,CCc1nn(CC(=O)NCc2ccc(OC)c(OC)c2)c(=O)c2cc3sc(C)cc3n12,inactive
7,C=CCN=c1scc(-c2ccccc2)n1/N=C/c1ccccn1,"inactive and inconclusive: 12.6 µM [inhibitor, single point]"
8,Cn1c(-[n+]2c(-c3ccccc3)cc(-c3ccccc3)cc2-c2ccccc2)nc2c([N+](=O)[O-])cccc21,"inconclusive: 28.2 µM [inhibitor, single point]"
9,O[C@@H]1COC(Nc2ccc(N=Nc3ccccc3)cc2)C[C@@H]1O (some centres undefined),"inconclusive: 28.2 µM [inhibitor, single point]"
10,COc1cc(C(=S)N2CCN(c3cccc(Cl)c3)CC2)ccc1O,"inconclusive: 11.2 µM [inhibitor, partial curve, poor fit]"
11,CC1=NC(=O)C(N=Nc2cccc(O)c2)N1c1ccccc1 (centres undefined),"inconclusive: 22.4 µM [inhibitor, single point]"
12,O=C(NCCc1ccc(F)cc1)c1coc(=O)c(Br)c1,"inconclusive: 11.2 µM [inhibitor, single point]"
13,COc1cccc2cc(-c3csc(-c4ccc(Cl)cc4)n3)c(=O)oc12,inactive
14,O=C(CSc1nc2cccnc2n1Cc1ccccc1)NCc1ccco1,inactive
15,S=C(NCCc1ccccc1)Nc1ccccc1,"inconclusive: 28.2 µM [inhibitor, single point]"
16,Cc1ccc(N/C(N)=N/c2nc(C)cc(N3CCCCC3)n2)c(C)c1,"inconclusive: 10 µM [inhibitor, partial curve, poor fit]"
17,CCOc1ccc(/C=C2\SC(=S)N(NS(=O)(=O)c3ccc(C)cc3)C2=O)cc1OC,"inconclusive: 12.6 µM [inhibitor, partial curve, poor fit]"
18,CCc1ccc(-n2nc(C)c3c(C(=O)Nc4cc(C)c(Cl)cc4OC)cc(C)nc32)cc1,inactive
19,COC(=O)c1cc(NS(=O)(=O)c2ccc(NCc3cccnc3)c([N+](=O)[O-])c2)cc(C(=O)OC)c1,inactive
20,COC(=O)c1c(NC(=O)c2ccn(C)n2)sc2c1CCC2,"inconclusive: 12.6 µM [inhibitor, single point]"
21,COc1ccc2c(c1)C(CC(C)=O)N(c1ccc(-c3cccnc3)cc1)C(c1ccsc1)=C2 (centres undefined),inactive
22,CC(C)(C)NC(=S)NNC(=O)c1ccncc1,"inconclusive: 28.2 µM [inhibitor, single point]"
23,COC(=O)c1ccc(Cn2nc(-c3ccc(C)cc3)ccc2=O)cc1,"inconclusive: 11.2 µM [inhibitor, single point]"

row,Structure (SMILES),Potency
1,O=C(NC1CCCCC1)N(Cc1ccc(F)cc1)Cc1nc2ccccc2c(=O)[nH]1,inactive
2,CCCNC(=O)N1C2=NC(C(=O)OC)=C(C(=O)OC)[C@@H]3N(Cc4ccccc4)c4ccccc4[C@]23C[C@H]1CO,"inconclusive: 3.16 µM [inhibitor, full curve, poor fit]"
3,Cc1cc(NCc2ccccn2)n2nc(C)c(-c3ccccc3)c2n1,"inconclusive: 1 µM [inhibitor, full curve, poor fit]"
4,O=C(C=Cc1ccccn1)c1ccccc1,"inconclusive: 20 µM [inhibitor, single point]"
5,CCn1c(=O)c(=O)[nH]c2cc(C(=O)NC3CCCc4ccccc43)ccc21 (centres undefined),"inconclusive: 28.2 µM [inhibitor, single point]"
6,Clc1cccc(OCCN2CCNCC2)c1,inactive
7,CC1(C)CC(=O)C(N=Nc2ccc(C(F)(F)F)cc2[N+](=O)[O-])=C(O)C1,inactive
8,N#Cc1nccnc1S(=O)(=O)c1cccs1,"inconclusive: 12.6 µM [inhibitor, single point]"
9,O=C(C[n+]1cc2ccccc2c2ccccc21)c1ccccc1,"inconclusive: 20 µM [inhibitor, single point]"
10,OC[C@@H]1CCCN1Cc1cn(-c2ccccc2)nc1-c1ccc2c(c1)OCO2,inactive
11,CCCCCCCCn1cnc2c(N)c(C)c(C)cc21,"inconclusive: 31.6 µM [inhibitor, single point]"
12,COc1ccccc1-c1oc2ccccc2c1C#CCO,inactive
13,NC(=O)N1CCN(CCCN2c3ccccc3Sc3cc(Cl)ccc32)CC1,"inconclusive: 12.6 µM [inhibitor, single point]"
14,Cc1cc(C)cc(NS(=O)(=O)c2ccc(NC(=S)NC(=O)c3cccs3)cc2)c1,"inconclusive: 28.2 µM [inhibitor, single point]"
15,Cc1ccc(Cn2c(CCNc3nc(-c4ccc(Cl)c([N+](=O)[O-])c4)cs3)nc3cc(Cl)c(Cl)cc32)cc1,inactive
16,Cc1cc(Cl)ccc1OC(C)C(=O)NNC(=O)C1CCCCC1C(=O)O (centres undefined),"inconclusive: 12.6 µM [inhibitor, single point]"
17,CCN1CCN(C(c2ccccn2)c2c(NC(=O)c3ccccc3)sc(C)c2C)CC1 (centres undefined),"inconclusive: 28.2 µM [inhibitor, single point]"
18,CCn1nc(C)c(Br)c1-c1nc(CS(=O)(=O)c2ccsc2)no1,inactive
19,Cc1ccc(C)c(NC(=S)NCc2ccccc2)c1,"inconclusive: 14.1 µM [inhibitor, single point]"
20,O=C(Cc1ccccc1)Nc1nnc(-c2cccs2)s1,inactive
21,CCC(C)(C)NC(=O)C(C(C)C)N(CC1CCCO1)C(=O)CNS(=O)(=O)c1ccc(F)cc1 (centres undefined),"inconclusive: 3.16 µM [inhibitor, full curve, poor fit]"
22,CN1CCN(C(c2cccnc2)c2ccc3cccnc3c2O)CC1 (centres undefined),"inconclusive: 11.2 µM [inhibitor, single point]"
23,CC(Nc1nc(N2CCN(CCO)CC2)nc2ccccc12)c1ccccc1 (centres undefined),"inconclusive: 28.2 µM [inhibitor, single point]"

row,Structure (SMILES),Potency
1,CN1CCN(C(=O)CCCN2C(=O)/C(=C/c3cccc(Br)c3)SC2=S)CC1,"inconclusive: 7.94 µM [inhibitor, partial curve, poor fit]"
2,CCOc1ccccc1N1CC(O)=C(c2nc3ccccc3s2)C1=N,"inconclusive: 2.82 µM [inhibitor, full curve, poor fit]"
3,CN(CC(=O)Nc1cccc(F)c1)C(=O)c1ccc(-c2cccc(C(F)(F)F)c2)o1,inactive
4,COc1ccc(-c2nc3ccccc3s2)cc1NC(=O)COc1cccc(C)c1,inactive
5,O=c1c2ccccc2c(-c2ccccc2)nn1-c1cc(Cl)cc(Cl)c1,inactive
6,CN1C[C@@H]2[C@@H]3C(=O)N(C)C(=O)[C@@H]3[C@](C)(C1=O)N2C(=O)c1ccc(C(C)(C)C)cc1,"inconclusive: 28.2 µM [inhibitor, single point]"
7,Cc1cc(Cl)nc(-c2ccccc2O)n1,"inconclusive: 28.2 µM [inhibitor, single point]"
8,CCOC(=O)N1CCN(S(=O)(=O)c2ccc(C(=O)N(CCN(CC)CC)c3nc4ccc(C)cc4s3)cc2)CC1,inactive
9,COc1ccc(C)cc1NC(=O)N1CCN(c2nnc(C)c3c(C)n(-c4ccccc4)nc23)CC1,inactive
10,CCS(=O)(=O)N1Cc2ccccc2CC1C(=O)Nc1nc2ccccc2s1 (centres undefined),"inconclusive: 28.2 µM [inhibitor, single point]"
11,COc1ccc(Cl)cc1C1CC(=O)Nc2cc3c(cc21)OCCO3 (centres undefined),"inconclusive: 1.12 µM [inhibitor, full curve, poor fit]"
12,Cc1ccc(C)c(NC(=S)N=Nc2c(O)n(C)c3ccc(S(=O)(=O)N4CCOCC4)cc23)c1,"inconclusive: 0.708 µM [inhibitor, full curve]"
13,Cc1ccc(C(=O)N2CCc3cc(CNC(=O)CCc4ccccc4)ccc32)cc1,"inconclusive: 17.8 µM [inhibitor, single point]"
14,Cc1cccc(NC(=O)C2C(C(=O)O)C3C=CC2C32CC2)c1C (centres undefined),"inconclusive: 31.6 µM [inhibitor, single point]"
15,CCCCC1=CC2=CC(=O)C(C)(OC(=O)CC)C(=O)C2=CN1CCOC (centres undefined),"inconclusive: 28.2 µM [inhibitor, single point]"
16,C[N+](C)(C)CCN1CCc2ccccc21,inactive
17,CCCCNC(=O)CC1N=C2c3ccccc3N=C(SCC(=O)Nc3ccc(OC)cc3)N2C1=O (centres undefined),"inconclusive: 20 µM [inhibitor, partial curve, poor fit]"
18,Cc1cc2cc(C)c(NCCNC(=O)c3ccccc3F)nc2cc1C,"inconclusive: 2.51 µM [inhibitor, partial curve]"
19,Cc1ccc(S(=O)(=O)N(C)C)cc1NC(=O)COc1ccccc1C(=O)Nc1ccccc1,"inconclusive: 14.1 µM [inhibitor, partial curve, poor fit]"
20,O=C(OCc1nnc(-c2ccccc2)o1)c1ccc(-n2cnnn2)cc1,inactive
21,N#Cc1ccc(CSc2nnc(-c3ccc(Br)cc3)o2)cc1,inactive
22,C=CCNC(=O)c1onc(CSc2ccc(Cl)cc2)c1C(=O)NCC=C,"inconclusive: 3.98 µM [inhibitor, full curve, poor fit]"
23,C=CCN(CC=C)CC(O)Cn1c2ccccc2c2ccccc21 (centres undefined),"inconclusive: 31.6 µM [inhibitor, single point]"

# Source: PubChem BioAssay AID624418 (National Center for Advancing Translational Sciences (NCATS), 2012)
